# Results: PubChem BioAssay AID485344 (National Center for Advancing Translational Sciences (NCATS), 2010)
# In all, about 340,000 compounds went through this assay and about 6,900 (2%) were called active. Rule as the data show it: active = inhibition above about 30%; inactive = below that, where a call was filed. The entries are a selection whose mix differs from that of the whole data set. Where no call is shown, the source filed none.
# Target: D(2) dopamine receptor (Homo sapiens) (UniProt P14416)
# Test: HTS Assay for Allosteric Antagonists of the Human D2 Dopamine Receptor: Primary Screen for Antagonists; also: 0% is about no effect
# Conditions: HEK293 TREx D2 cells, calcium flux, dopamine EC80; at 10 µM; stronger effect = higher value
# How it was run: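 In this primary screen, negative modulation is detected by tracking calcium flux after an EC80 dopamine challenge in inducible HEK293 T-REx D2 cells preexposed to test compound for 180 s.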
# Chain of UniProt P14416 (P14416 whole entry, looked up): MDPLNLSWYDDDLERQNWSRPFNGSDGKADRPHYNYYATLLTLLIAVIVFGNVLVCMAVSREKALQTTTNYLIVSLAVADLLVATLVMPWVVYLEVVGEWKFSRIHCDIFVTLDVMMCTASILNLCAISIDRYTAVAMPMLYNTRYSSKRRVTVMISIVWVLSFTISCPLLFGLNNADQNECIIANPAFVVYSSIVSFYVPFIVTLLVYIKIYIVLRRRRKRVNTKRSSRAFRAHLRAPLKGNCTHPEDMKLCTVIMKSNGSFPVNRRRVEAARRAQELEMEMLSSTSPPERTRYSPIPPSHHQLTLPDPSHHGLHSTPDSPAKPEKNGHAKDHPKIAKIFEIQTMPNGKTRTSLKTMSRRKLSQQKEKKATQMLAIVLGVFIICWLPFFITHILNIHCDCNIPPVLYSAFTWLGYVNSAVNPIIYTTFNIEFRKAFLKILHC
row,Structure (SMILES),inhibition
1,CCC(=O)N1CCc2cc(Br)cc(S(=O)(=O)N3CCN(c4cccc(Cl)c4)CC3)c21,6.21%
2,Cc1nc2c(-c3ccc(F)cc3)c(C)nn2c(C)c1CCC(=O)NCc1cccc(Cl)c1,24.2%
3,COc1cccc(CNC(=O)c2ccc3c(c2)sc2nc(-c4ccccc4)cn23)c1OC,7.21%
4,CCOc1ccccc1CNC(=O)c1cc2oc3ccccc3c2n1CC,-12.9%
5,O=c1[nH]c2ccc(S(=O)(=O)Nc3cc(Cl)ccc3O)cc2o1,6.77%
6,Cc1ccc(-c2nc3scc(CCNS(=O)(=O)c4c(C)noc4C)n3n2)cc1,-18.3%
7,COc1cc(NC(=O)CCCN2C(=O)CCn3nc(-c4cn(C)c5ccccc45)cc32)cc(OC)c1,3.78%
8,Fc1ccc(Nc2nc(-c3ccc(F)cc3)c3c(n2)-c2ccccc2OC3)cc1,26.7%
9,O=C(c1cnc(N2CCCCC2)c2ccccc12)N1CCN(c2ccc(F)cc2)CC1,18.3%
10,COc1cccc(C(=O)Nc2ccc3nc(SCC(=O)N4CCc5ccccc54)sc3c2)c1,-23.7%
11,Cc1sc2c(c1C)c(=O)n(-c1ccc(Cl)cc1)c(=O)n2CC(=O)c1ccccc1,-15.6%
12,Cc1ccc(-n2ncc(C(=O)N(C)Cc3ccccc3)c2-n2cccc2)cc1,8.53%
13,Cc1ccccc1NC(=O)c1sc(Cl)nc1-c1ccccc1,active: 30.7%
14,O=C(c1ccco1)N1CCN(CC2CC3C=CC2C3)CC1 (configuration not stated),active: 83.8%
15,CC(CNC(=O)c1cc2ccccn2n1)c1ccccc1 (configuration not stated),2.55%
16,COc1ccc(Cl)cc1NC(=O)c1cc2nc(-c3ccc(C)cc3)cc(C(F)(F)F)n2n1,-13.3%
17,Cc1cc(Br)ccc1NC(=O)C(NS(=O)(=O)c1cccs1)c1ccccc1 (configuration not stated),-6.93%
18,Cc1ccc(S(=O)(=O)Oc2ccccc2N2C(=O)C3CC=CCC3C2=O)cc1 (configuration not stated),active: 40.4%
19,CCOc1ccc(N2CC(C(=O)Nc3ccccc3F)CC2=O)cc1 (configuration not stated),active: 33.7%
20,NS(=O)(=O)c1ccc(CCNC(=O)CCn2c(=O)c3cccn3c3cccnc32)cc1,-8.3%
21,Cc1ccc(-c2cn3c(n2)sc2cc(C(=O)NC4CCCCC4)ccc23)cc1,0.791%

row,Structure (SMILES),inhibition
1,Cc1ccc(NC(=O)/C=C/c2cccc(C(F)(F)F)c2)cc1,active: 68.5%
2,COc1ccc(CCNC(=O)CCn2c(=O)c3cccn3c3ccc(F)cc32)cc1OC,11.5%
3,CCc1cc(C(=O)NCC(c2cccs2)N2CCOCC2)sc1C (configuration not stated),active: 31.4%
4,CCOC(=O)C1=C(CN2CCCCC2)NC(=O)NC1c1ccc(OC)cc1 (configuration not stated),-2.67%
5,Cc1cccc(NC(=O)c2ccc(F)c(S(=O)(=O)N3CCN(c4ccc(F)cc4)CC3)c2)c1,8.02%
6,CC(=O)c1c(OCC(=O)O)ccc2c(C)cc(=O)oc12,active: 46.8%
7,Cc1ccc2nc(N(Cc3cccnc3)C(=O)CCc3ccccc3)sc2c1,26.5%
8,Clc1c(Cl)c(Cl)c2n[nH]nc2c1Cl,active: 38.1%
9,CC(=O)c1ccc(NC(=O)c2nn(C)c3c2CS(=O)(=O)c2ccccc2-3)cc1,23.1%
10,COc1ccc(-c2nc3n(n2)C(c2cccc(C)c2)C(C(N)=O)=C(C)N3)cc1OC (configuration not stated),8.27%
11,Cc1cc(-c2ccc(C)c(S(=O)(=O)N(C(C)C)C3CCCCC3)c2)on1,-0.274%
12,CCOC(=O)c1ccc(CN(Cc2ccc(Cl)cc2Cl)S(=O)(=O)c2cccc(Cl)c2)cc1,3.46%
13,CC(=O)Nc1cccc(C(=O)/C=C/c2ccc(N(C)C)cc2)c1,active: 35%
14,CC1(C)O[C@H]2[C@@H](O1)[C@@H](C(=O)Nc1cc(F)ccc1F)O[C@@H]1OC(C)(C)O[C@@H]12,2.66%
15,O=C(c1cc2ccccc2o1)N1CCN(CCOc2ccccc2)CC1,active: 96.2%
16,O=C(O)CCSc1nnc(-c2ccc(Cl)cc2Cl)o1,1.16%
17,Cc1ccc(-c2cn3c(n2)sc2cc(C(=O)NC4CCCCCC4)ccc23)c(C)c1,5.29%
18,Cc1oc2c(c(C)cc3oc(=O)c(CC(=O)NCCc4ccc(Cl)cc4)c(C)c32)c1C,-9.83%
19,Cc1cccc(NC(c2nnc(-c3ccccc3)o2)c2ccc(F)cc2Cl)c1C (configuration not stated),13.1%
20,Cc1ccc(Cl)cc1N1CCN(C(=O)C2CCN(S(=O)(=O)c3c(C)noc3/C=C/c3ccccc3F)CC2)CC1,-0.957%
21,CC(C)c1nn2c(=O)cc(COC(=O)COc3ccccc3F)nc2s1,-11.6%

row,Structure (SMILES),inhibition
1,O=C(NCc1ccccc1)c1ccc2c(c1)sc1nc(-c3ccc(F)cc3)cn12,-6.1%
2,Cc1ccc(C)c(N2CCN(CCCNC(=O)c3ccc4nc(C(C)C)oc4c3)CC2)c1,15.5%
3,COc1cccc(-c2cn3c(n2)sc2cc(C(=O)NCCc4ccccc4)ccc23)c1,-3.64%
4,Cc1nn(C)c2c1c(C(F)(F)F)cc(=O)n2C(C)C(=O)NCc1ccccc1 (configuration not stated),16%
5,CCOCCc1nn2c(=O)cc(COC(=O)c3ccc4c(c3)OCO4)nc2s1,-1.05%
6,CCCC12CN3CCN(CC(C3)/C1=N\NC(=O)Nc1ccccc1)C2,active: 53.9%
7,Cc1ccc(CNc2nc3nc(C)c(Cl)c(C)n3n2)cc1,-0.684%
8,O=S(=O)(c1ccc(Br)cc1)N1CCn2cccc2C1c1ccc(Br)cc1 (configuration not stated),14.5%
9,COc1ccc(-c2nc(CS(=O)CC(=O)NCc3ccccc3Cl)c(C)o2)cc1OC (configuration not stated),-1.7%
10,Cn1c(C(=O)Nc2cccc(Cl)c2)cc2c(=O)n(C)c3ccccc3c21,10.3%
11,O=[N+]([O-])c1ccc(OCCN2CCNCC2)cc1,active: 31.8%
12,CCCn1c2ccc(C)cc2c2nnc(SCCN3CCCCC3)nc21,16.5%
13,O=C(CN1C(=O)CC(c2ccco2)Sc2ccccc21)Nc1ccc(OC(F)(F)F)cc1 (configuration not stated),-13.8%
14,Cc1ccc(S(=O)(=O)Nc2nc3n(n2)C(c2ccc(Cl)cc2)C=C(c2ccccc2)N3)cc1 (configuration not stated),2.31%
15,CCOc1ccc(C2CC(=O)c3c([nH]c(C(=O)OC4CCCCCC4)c3C)C2)cc1 (configuration not stated),17.9%
16,COc1ccc(C(=O)NCC(c2cccs2)S(=O)(=O)c2cccs2)cc1 (configuration not stated),4.07%
17,Cc1ccc(NC(=O)[C@H](Cc2ccccc2)N2Cc3ccccc3C2=O)cc1F,7.6%
18,CC1=C(C(=O)OC2CCCCCC2)C(c2c(Cl)cccc2Cl)CC(=O)N1 (configuration not stated),6.4%
19,CCc1ccccc1NC(=O)Cn1c(=O)oc2ccccc21,11.7%
20,CCOc1ccc(CCNC(c2nnc(-c3ccccc3)o2)c2ccccc2Cl)cc1OCC (configuration not stated),-3.2%
